Measurements: the supplement of paper PMC4967469
By IC50 is meant the dose at which the fit gives 50% viability; a limit (>, <) means that the fit lies beyond the doses tested. AUC is the area under the same curve over the 256-fold range up to the top dose, as a fraction; values near 1 show little effect. For some of these results: Any top dose called inferred was calculated from the reported fits. For some of these results: Where an entry number is given, a second screen of the drug exists; the two often differ.

Columns and labels:
Test in all cases: Viability of human cancer cell lines after 72 h of drug (GDSC screen)
AZ628 = compound: Cc1ccc(NC(=O)c2cccc(C(C)(C)C#N)c2)cc1Nc1ccc2ncn(C)c(=O)c2c1 [AZ628]; settings: top dose 4 µM; top dose inferred
Description: (§1)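 Human cancer cell lines in 384-well plates, medium with 10% serum, drug for 72 h over a 256-fold dose range (nine 2-fold or five 4-fold steps up to the top dose). Adherent lines were fixed and stained with the nucleic acid dye Syto60, suspension lines read with resazurin; signal relative to control wells, capped at 0 and 100%. One two-parameter sigmoid per drug and line, fitted in a mixed model over all curves with the slope shared within a line.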

AZD6244 = compound: Cn1cnc2c(F)c(Nc3ccc(Br)cc3Cl)c(C(=O)NOCCO)cc21 [AZD6244]; settings: top dose 4 µM; screen: GDSC drug entry 1498; top dose inferred
Description: as §1

AS601245 = compound: N#CC(c1ccnc(NCCc2cccnc2)n1)c1nc2ccccc2s1 [AS601245]; settings: top dose 8 µM; top dose inferred
Description: as §1

EX-527 = compound: NC(=O)C1CCCc2c1[nH]c1ccc(Cl)cc21 [EX-527]; settings: top dose 20 µM
Description: as §1

YM201636 = compound: Nc1ccc(C(=O)Nc2cccc(-c3nc(N4CCOCC4)c4oc5ncccc5c4n3)c2)cn1 [YM201636]; settings: top dose 5.12 µM; top dose inferred
Description: as §1

Cell Line	AUC (AZ628)	IC50 (AZ628) [µM]	AUC (AZD6244)	IC50 (AZD6244) [µM]	AUC (AS601245)	IC50 (AS601245) [µM]	AUC (EX-527)	IC50 (EX-527) [µM]	AUC (YM201636)	IC50 (YM201636) [µM]
8-MG-BA (glioma, adherent)	0.883	3.81	0.928	> 4	0.836	4.82	0.954	> 20	0.94	> 5.12
697 (lymphoblastic leukaemia, suspension)	0.583	0.402	0.983	> 4	0.825	3.57	0.989	> 20	0.774	1.62
A3-KAW (B-cell lymphoma, suspension)	0.935	> 4	0.731	0.959	0.888	5.86	0.992	> 20	0.881	3.5
A4-Fuk (B-cell lymphoma, suspension)	0.594	0.457	0.939	> 4	0.853	6.71	0.984	> 20	0.912	> 5.12
A101D (melanoma, adherent)	0.247	0.0388	0.534	0.316	0.645	1.39	0.978	> 20	0.888	> 5.12
A253 (head and neck, adherent)	0.939	> 4	0.954	> 4	0.873	7.33	0.986	> 20	0.985	> 5.12
A388 (skin, adherent)	0.89	> 4	0.904	> 4	0.88	> 8	0.98	> 20	0.935	> 5.12
ALL-PO (lymphoblastic leukaemia, suspension)	0.742	1.29	0.958	> 4	0.683	1.68	0.962	> 20	0.654	0.88
ALL-SIL (T-cell leukaemia, suspension)	0.398	0.137	0.982	> 4	0.804	3.37	0.987	> 20	0.64	0.732
AM-38 (glioma, semi-adherent)	0.949	> 4	0.983	> 4	0.968	> 8	0.987	> 20	0.775	2.06
AMO-1 (haematopoietic neoplasm, suspension)	0.948	> 4	0.932	> 4	0.842	4.47	0.983	> 20	0.783	1.84
ARH-77 (myeloma, suspension)	0.912	> 4	0.969	> 4	0.904	> 8	0.985	> 20	0.893	> 5.12
ATN-1 (T-cell lymphoblastic leukaemia, suspension)	0.984	> 4	0.983	> 4	0.891	> 8	0.979	> 20	0.842	3.25
BB30-HNC (head and neck, adherent)	0.803	1.94	0.637	0.593	0.82	4.48	0.981	> 20	0.914	> 5.12
BB49-HNC (head and neck, adherent)	0.522	0.294	0.347	0.0788	0.606	1.1	0.968	> 20	0.863	> 5.12
BB65-RCC (kidney, adherent)	0.947	> 4	0.803	2.36	0.776	3.68	0.98	> 20	0.956	> 5.12
BC-1 (B-cell lymphoma, suspension)	0.956	> 4	0.964	> 4	0.833	4.13	0.979	> 20	0.864	3.43
BE2-M17 (neuroblastoma, adherent)	0.741	1.26	0.834	2.71	0.913	> 8	0.979	> 20	0.984	> 5.12
BE-13 (lymphoblastic leukaemia, suspension)	0.69	0.819	0.986	> 4	0.873	6.88	0.985	> 20	0.729	1.36
